Measured values taken from publication PMC11335197.
These are yes or no findings as the source states them, for the method shown. In cells and extracts the contact can be indirect. Some results given as binding are weak or reduced against the parent protein; the word gives no strength. For some of these results: Sequences can lack the tags named with a protein. Blank lines part the entries; values can stand above or below the molecule they belong to.

Columns and labels:
[1] = molecular target: EGFR C-terminally fused to mTurquoise2 (UniProt P00533); assay: FRET or BRET; intensity-based FRET (FRET index), live HEK293T cells, 37 °C, confocal microscope; mTurquoise2 donor, YPet acceptor; plasma membrane regions only
[2] = molecular target: AT1R wildtype coupled to mTurquoise2 (UniProt P30556); assay: as above
[3] = molecular target: EGFR C-terminally fused to mTurquoise2 (UniProt P00533); assay: FRET or BRET; FLIM-FRET: amplitude weighted average fluorescence lifetime of the mTurquoise2 donor (two-exponential fit), live HEK293T cells, plasma membrane regions
[4] = molecular target: AT1R wildtype coupled to mTurquoise2 (UniProt P30556); assay: as above
[5] = molecular target: C-terminal EGFP-labelled EGFR (epidermal growth factor receptor) (UniProt P00533); assay: co-IP; HA-AT1R and EGFR-EGFP expressed alone or together in HEK293T; lysis in 1% Triton X-100, 150 mmol/L NaCl, Tris pH 7.5; Dynabeads with anti-GFP (JL-8) or anti-HA antibody, overnight; Western blot with anti-HA
[6] = molecular target: EGFR C-terminally fused to mTurquoise2 (UniProt P00533); assay: FRET or BRET; intensity-based FRET (FRET index), live HEK293T cells, 37 °C, confocal microscope; mTurquoise2 donor, YPet acceptor; plasma membrane regions only; remark: listed apart in the source
[7] = molecular target: T1, AT1R wildtype coupled to mTurquoise2, P30556; assay: as above; details: remark: other sources report otherwise
T1 chain: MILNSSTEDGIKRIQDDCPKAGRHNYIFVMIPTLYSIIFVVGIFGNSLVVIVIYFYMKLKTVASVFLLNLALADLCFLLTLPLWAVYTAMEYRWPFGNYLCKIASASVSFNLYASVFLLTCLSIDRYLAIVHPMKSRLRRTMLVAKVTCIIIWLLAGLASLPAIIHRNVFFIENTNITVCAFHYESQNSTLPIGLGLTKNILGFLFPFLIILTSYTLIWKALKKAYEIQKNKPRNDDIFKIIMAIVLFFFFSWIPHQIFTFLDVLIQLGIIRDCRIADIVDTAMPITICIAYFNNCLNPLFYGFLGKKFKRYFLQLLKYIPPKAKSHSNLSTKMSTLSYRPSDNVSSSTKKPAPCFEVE

[8] = molecular target: T1, AT1R wildtype coupled to mTurquoise2, …; assay: FRET or BRET; FLIM-FRET: amplitude weighted average fluorescence lifetime of the mTurquoise2 donor (two-exponential fit), live HEK293T cells, plasma membrane regions; details: remark: other sources report otherwise

Molecule: AT1R wildtype C-terminally fused to YPet (from UniProt P30556 1-359) (receptor)
- binding [1]: binds
- binding [2]: binds
- binding [3]: binds
- binding [4]: binds

B2: Mas1 receptor C-terminally fused to YPet, P04201 1-325 (receptor)
chain: MDGSNVTSFVVEEPTNISTGRNASVGNAHRQIPIVHWVIMSISPVGFVENGILLWFLCFRMRRNPFTVYITHLSIADISLLFCIFILSIDYALDYELSSGHYYTIVTLSVTFLFGYNTGLYLLTAISVERCLSVLYPIWYRCHRPKYQSALVCALLWALSCLVTTMEYVMCIDREEESHSRNDCRAVIIFIAILSFLVFTPLMLVSSTILVVKIRKNTWASHSSKLYIVIMVTIIIFLIFAMPMRLLYLLYYEYWSTFGNLHHISLLFSTINSSANPFIYFFVGSSKKKRFKESLKVVLTRAFKDEMQPRRQKDNCNTVTVETVV
- binding [7]: no binding
- binding [8]: no binding

The next lines start with the values.

- binding [2]: binds weakly
- binding [4]: binds weakly
Molecule: AT1R-YPet-MUT1 (S189A, I193A, L197A, I201A, L202A, L205A, F206A) (from UniProt P30556 1-359) (receptor)

- binding [2]: binds
- binding [4]: binds
Molecule: AT1R-YPet-MUT2 (Y54A, F55A, F96A, Y99A, L100A) (from UniProt P30556 1-359) (receptor)

- binding [5]: binds
Molecule: N-terminal HA-labelled AT1R (angiotensin II receptor type 1) (from UniProt P30556 1-359)

- binding [6]: no binding
- binding [3]: no binding
B1: Mas1 receptor C-terminally fused to YPet (receptor, UniProt P04201 1-325)
chain: B2 chain
